From PubChem BioAssay AID743279 (National Center for Advancing Translational Sciences (NCATS), 2014)
Values joined by “and” are separate entries in the source; they are usually repeats but may differ in a detail not shown here. Equal values may be shown once. Hit rate of the full screen: of about 360,000 compounds, about 17,000 (4.7%) were called active. The inconclusive results got no clear call from the source; some entries with a clear call stand among them for comparison. Cut-off read from the data, not from the text of the source: active = activity change below about -50%; inconclusive = mostly about -30% to -49%; inactive = weaker than that.

Experiment: qHTS for Inhibitors of Inflammasome Signaling: IL-1-beta AlphaLISA Primary Screen
Conditions: THP-1 LPS/ATP IL-1B secretion, 16 h, at 57.5 µM, stronger effect = lower value
How it was run: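 Secreted IL-1B measured by AlphaLISA bead assay after 16 h compound exposure of THP-1 cells; compounds (final up to 57.5 uM) added 1 h before LPS (250 ng/mL) and ATP (1.25 mM) stimulation; lower signal means less secretion.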
% is set by controls: 0 for no effect and ±100 for the full control effect.

SMILES | activity change
Fc1ccc(Cn2nnnc2C(c2ccc(Cl)cc2)N2CC=C(c3ccc(F)cc3)CC2)cc1 (configuration not stated) | inconclusive: -31.9%
Cc1cccc([N+](=O)[O-])c1 | inconclusive: -41.9%
CCOc1ccc(Br)c(C2(O)CC(C)N(C)CC2C)c1 (configuration not stated) | inconclusive: -40.2%
CCn1c(=O)cc(OCC(=O)N2CCC3(CC2)OCCO3)c2ccccc21 | inconclusive: -40.1%
CN1CC(C(=O)c2ccc(Cl)cc2)C(c2ccc(N(C)C)cc2)C1 (configuration not stated) | inconclusive: -34%
COC(=O)C1=C(c2ccccc2OCc2ccccc2)C[C@@H]2CC[C@H]1N2C(=O)NCc1ccc(C(F)(F)F)cc1 | inconclusive: -32.9%
COC(=O)C1=C(c2ccccc2OCc2ccccc2)C[C@@H]2CC[C@H]1N2C(=O)NCc1ccc(F)cc1 | inconclusive: -32.3%
COC(=O)C1=C(c2ccccc2OCc2ccccc2)C[C@@H]2CC[C@H]1N2C(=O)NCc1cccc(F)c1 | inconclusive: -32.5%
C=CCN1C(=O)/C(=C/c2ccc(Br)s2)C(=O)NC1=S | active: -98.6%
CCn1c(O)c(N=Nc2cccc(S(=O)(=O)N3CCOCC3)c2)c(=O)n(CC)c1=S | inconclusive: -30.3%
CNC(C(=O)c1ccccc1)C(OC)c1ccc(C)cc1 (configuration not stated) | inactive: -7.22%
N#CC1c2ccccc2C=CN1C(=O)c1ccc(N(CCCl)CCCl)cc1 (configuration not stated) | inconclusive: -31.5%
CN1CCN(c2ccc([N+](=O)[O-])c(N/N=C3\CN4CCC3CC4)c2)CC1 | inconclusive: -44.8%
ClCCN(CCCl)c1ccc(C=Cc2ccncn2)cc1 | inconclusive: -42.9%
Cn1c(O)c(C=NC2CC(C)(C)NC(C)(C)C2)c(=O)n(C)c1=O | inactive: -8.35%
CC(C)n1c(O)c(C=NCc2ccccc2)c(=O)[nH]c1=S | inactive: -4.07%
Cc1ccccc1NC(=NCCCN1CC1)Nc1ccccc1C | inconclusive: -45.3%
NN=C1C(Cl)=C(Cl)C(Cl)=C1Cl | inconclusive: -30.5%
S=C(NCCc1ccccc1)N1Cc2cc(N3CCCCC3)ccc2-n2nncc2C1 | inconclusive: -36.3%
Cc1cc(C)n2nc(C)[n+](C)c2n1 | inactive: 21.9%
Cc1cc(OCC(=O)NCc2ccc(S(N)(=O)=O)cc2)c2c3c(c(=O)oc2c1)CCC3 | inconclusive: -40.9%

SMILES | activity change
CC(CC(C#N)(c1ccccc1)c1ccccc1)N1CCOCC1 (configuration not stated) | inconclusive: -35.7%
O=C1NCN(c2ccccc2)C12CCN(C(c1cc3ccccc3o1)c1nnnn1C1CCCCC1)CC2 (configuration not stated) | inconclusive: -35.2%
C=C(C=O)C[C@@H]1C[C@H](O)C2OC3C[C@]4(C)OC5/C=C\CC6OC7C(CC=CCC6OC5CCCC4OC3CC2O1)OC1CC2OC3CC(=O)OC3C[C@@H](C)C[C@@]2(C)OC1C[C@@H]7C (some centres not stated) | active: -102%
O=C(NC(=C(Cl)Cl)P(=O)(c1ccccc1)c1ccccc1)c1ccccc1 | inconclusive: -38.9%
COC(=O)C1=C(c2ccccc2OCc2ccccc2)C[C@@H]2CC[C@H]1N2C(=O)NCCOc1ccccc1Cl | inconclusive: -40.1%
CCN(CC)c1ccc(C=C2C(=O)NC(=S)NC2=O)cc1 | active: -97.3%
CCCOC(=O)c1ccc(-[n+]2c(-c3ccccc3)cc(-c3ccccc3)cc2-c2ccccc2)cc1 | active: -85.5%
NC(=O)c1c(Br)n(C2OC(CO)C(O)C2O)c2ncnc(N)c12 (configuration not stated) | active: -75.7%
CCOc1cc2c(cc1OCC)-n1cccc1C(c1ccccc1F)NC2 (configuration not stated) | inconclusive: -44.2%
CC(=O)O[C@H]1[C@H]2O[C@]23[C@@H]2CC[C@]4(O)C[C@@H](O)CC[C@]4(C)C2CC[C@]3(C)[C@H]1c1ccc(=O)oc1 (some centres not stated) | inconclusive: -48.8%
CCn1c(C)c(C(=O)Nc2ccc(OC)cc2)c2cc(OC)ccc21 | inactive: 15.1%
Cc1cc(Cl)ccc1OCCCC(=O)NCc1cccs1 | inconclusive: -36.6%
COP(=O)(OC)C(NC(=O)/C=C/c1ccccc1)C(Cl)(Cl)Cl (configuration not stated) | inconclusive: -34.6%
COc1ccc(-n2c(/C=C/c3ccc(O)c(O)c3)nc3ccccc3c2=O)cc1 | inconclusive: -33.6%
O=C(NCC1=C(c2ccc3ccccc3c2)C[C@@H]2CC[C@H]1N2Cc1ccco1)c1cccs1 | inconclusive: -32.2%
CC(=NCCc1c[nH]c2ccccc12)c1c(O)n(Cc2ccccc2)c(=O)[nH]c1=O | inconclusive: -32.5%
Cc1ccc(N)c(N)c1 | inconclusive: -30%
COc1ccc(NC(=O)[C@@H](NC(=O)N2C[C@H]3C[C@@H](C2)c2cccc(=O)n2C3)C(C)C)cc1 | inactive: -5.05%
CCCCCSc1cc(OC)c(CCN(C)C)cc1OC | inconclusive: -46.2%
CCOc1ccccc1CNCCc1ccc2c(c1)OCO2 | active: -59.8%
O=C(c1ccc(Cl)cc1)N1CCC2(CC1)OCCO2 | inactive: 4.97%

SMILES | activity change
O=C(COc1ccccc1F)N1CCN(CCN2C(=O)c3cccc4cccc(c34)C2=O)CC1 | inconclusive: -34.5%
N=C(N)c1c(O)n(C2CCCCC2)c(=O)n(C2CCCCC2)c1=O | inconclusive: -37.2%
Cn1c(O)c(C(=Nc2ccccc2)SCc2ccccc2Cl)c(=O)n(C)c1=O | inconclusive: -31.1%
CCOC(=O)c1cccc(C2=C(CNC(=O)c3ccncc3)[C@H]3CC[C@@H](C2)N3Cc2ccccc2)c1 | inactive: 41.7%
COc1ccccc1N=Nc1c(O)[nH]c(=S)[nH]c1=O | inactive: 56.6%
COC(=O)C1=C(c2ccc(OCc3ccccc3)cc2)C[C@@H]2CC[C@H]1N2C(=O)NCc1ccc(F)cc1 | inconclusive: -34.1%
COc1cccc(-n2c(O)c(C=NCCN3CCNCC3)c(=O)[nH]c2=S)c1 | inactive: 14.3%
COC(=O)C1=C(c2cc3ccccc3s2)C[C@@H]2CC[C@H]1N2C(=O)NCc1ccc(F)cc1 | inconclusive: -33.3%
COc1cc(CC(C)N)c(OC)cc1I (configuration not stated) | inconclusive: -35.3%
COC(=O)COc1ccc(/C=C2\C(=O)NC(=S)N(c3ccc(C)cc3)C2=O)cc1OC | inactive: 10.7%
COC(=O)C1=C(c2cccc(OCc3ccccc3)c2)C[C@@H]2CC[C@H]1N2C | inactive: 0%
COCCO[C@H]1CC[C@@]2(C)C(=CCC3C2CC[C@@]2(C)C3CC[C@]2(C)O)C1 (some centres not stated) | active: -71.6%
COc1ccc(C2CN(C)CC2C(=O)c2ccc(F)cc2)cc1Cl (configuration not stated) | active: -57.9%
Cc1ccc(NC(=O)N2CC2)cc1NC(=O)N1CC1 | inactive: 29.6%
OC(COCc1ccc(Cl)cc1)CN1CC=C(c2ccccc2)CC1 (configuration not stated) | inconclusive: -38% and active: -70.1%
COc1ccc(C2NCc3ccccc3-n3cccc32)cc1 (configuration not stated) | inconclusive: -32.2%
CC=C(C)C(=O)OC1CCN2CC=C(COC(=O)C(O)(C(C)OC)C(C)(C)O)C12 (configuration not stated) | inactive: 12.9%
CCOC(=O)[C@@]12C(=O)C(=O)N[C@]1(c1ccccc1)C1OCCCC12 (some centres not stated) | inactive: 13.4%
O=P(Nc1cccnc1)(Oc1ccccc1Cl)Oc1ccccc1Cl | inactive: -1.1%
Cc1ccc(CN2CCSc3ccc(C(=O)N4CCC5(CC4)OCCO5)cc32)cc1 | inconclusive: -47.1%
COC(=O)C1=C(c2ccc(F)cc2OCc2ccccc2)C[C@@H]2CC[C@H]1N2C(=O)NCCCc1ccccc1 | inactive: -11.3%

SMILES | activity change
c1cnc2c(c1)ccc1ncccc12 | inconclusive: -37.8%
C=CC1CN2CCC1CC2[C@@H](OC(=O)c1ccc(OC)cc1)c1ccnc2ccccc12 (some centres not stated) | inconclusive: -31.4%
ClCCN(CCCl)c1ccc(-n2cnc3c(Cl)ncnc32)cc1 | active: -96%
C[C@H]1CCC[C@@H](O)CCC/C=C/c2cc(O)cc(O)c2C(=O)O1 | inconclusive: -48.9%
Fc1cccc(-c2ccc3c(c2)CN(c2cccc(Cl)c2)Cc2cnnn2-3)c1 | inconclusive: -32.4%
Cc1cc(N=Nc2ccccc2C)ccc1N | inconclusive: -38.9%
c1ccc(-c2[nH]c(-c3ccccc3)[n+](CC3CO3)c2-c2ccccc2)cc1 (configuration not stated) | active: -56.3%
COc1ccc(C(c2nnnn2-c2ccc(OC)cc2)N2CCC(n3c(=O)[nH]c4ccccc43)CC2)cc1 (configuration not stated) | inconclusive: -39.8%
CN(C)CCNC(=O)c1cccn(Cc2cc(C(F)(F)F)cc(C(F)(F)F)c2)c1=O | inconclusive: -38.2%
CCOc1cc2c(cc1OCC)-n1cccc1C(c1ccc(OC)c(O)c1)NC2 (configuration not stated) | inconclusive: -44.7%
O=c1[nH]c2ccccc2n1C1CCN(C(CCc2ccccc2)c2nnnn2-c2ccc3c(c2)OCCO3)CC1 (configuration not stated) | inconclusive: -48.2%
O=C1/C(=C/c2ccc([N+](=O)[O-])cc2)N2CCC1CC2 | inactive: -22.3%
O=C(c1cc(-c2ccccc2)nc2ccccc12)N1CCC2(CC1)OCCO2 | inactive: -2.77%
COc1cccc(OC)c1CN1CCCC(C(=O)c2cccc(Cl)c2)C1 (configuration not stated) | inconclusive: -35.9%
CCC(c1nnnn1C1CCCCC1)N1CCC2(CC1)C(=O)NCN2c1ccccc1 (configuration not stated) | inactive: -0.0781%
Cc1ccn2nc(S(=O)(=O)Nc3c(F)cccc3F)nc2n1 | inactive: 6.6%
COC(=O)C1=C(c2cccc(OCc3ccccc3)c2)C[C@@H]2CC[C@H]1N2C(=O)NCc1ccc(Br)cc1 | inconclusive: -39.6%
COc1ccc(-n2nnnc2C(C2CC2)N2CCC(n3c(=O)[nH]c4ccccc43)CC2)cc1 (configuration not stated) | inconclusive: -30.6%
O=C1NC(=O)N(C2CCCCC2)C(=O)C1C1c2ccccc2C(=O)N1Cc1ccccc1 (configuration not stated) | inactive: 0%
